# Source: PubChem BioAssay AID1347165 (National Center for Advancing Translational Sciences (NCATS), 2019)
# Values joined by “and” are separate entries in the source; they are usually repeats but may differ in a detail not shown here. Identical values can stand only once. Screen size: about 220,000 compounds; about 5,700 (2.6%) were called active. The shares of active, inactive and inconclusive entries below differ from those in the screen. The call rests on the fitted dose curve; in most records, active means well fitted inhibition curve with a large enough effect; inconclusive means small, poorly fitted or top-dose-only effect; inactive means no such curve, though single readings can be large or run the other way. Potencies beside an inconclusive call are fits to weak or partial responses and may not hold up.
# Target: Lysine-specific demethylase 5B (Homo sapiens) (UniProt Q9UGL1)
# Sequence of UniProt Q9UGL1 (Q9UGL1 whole entry, looked up): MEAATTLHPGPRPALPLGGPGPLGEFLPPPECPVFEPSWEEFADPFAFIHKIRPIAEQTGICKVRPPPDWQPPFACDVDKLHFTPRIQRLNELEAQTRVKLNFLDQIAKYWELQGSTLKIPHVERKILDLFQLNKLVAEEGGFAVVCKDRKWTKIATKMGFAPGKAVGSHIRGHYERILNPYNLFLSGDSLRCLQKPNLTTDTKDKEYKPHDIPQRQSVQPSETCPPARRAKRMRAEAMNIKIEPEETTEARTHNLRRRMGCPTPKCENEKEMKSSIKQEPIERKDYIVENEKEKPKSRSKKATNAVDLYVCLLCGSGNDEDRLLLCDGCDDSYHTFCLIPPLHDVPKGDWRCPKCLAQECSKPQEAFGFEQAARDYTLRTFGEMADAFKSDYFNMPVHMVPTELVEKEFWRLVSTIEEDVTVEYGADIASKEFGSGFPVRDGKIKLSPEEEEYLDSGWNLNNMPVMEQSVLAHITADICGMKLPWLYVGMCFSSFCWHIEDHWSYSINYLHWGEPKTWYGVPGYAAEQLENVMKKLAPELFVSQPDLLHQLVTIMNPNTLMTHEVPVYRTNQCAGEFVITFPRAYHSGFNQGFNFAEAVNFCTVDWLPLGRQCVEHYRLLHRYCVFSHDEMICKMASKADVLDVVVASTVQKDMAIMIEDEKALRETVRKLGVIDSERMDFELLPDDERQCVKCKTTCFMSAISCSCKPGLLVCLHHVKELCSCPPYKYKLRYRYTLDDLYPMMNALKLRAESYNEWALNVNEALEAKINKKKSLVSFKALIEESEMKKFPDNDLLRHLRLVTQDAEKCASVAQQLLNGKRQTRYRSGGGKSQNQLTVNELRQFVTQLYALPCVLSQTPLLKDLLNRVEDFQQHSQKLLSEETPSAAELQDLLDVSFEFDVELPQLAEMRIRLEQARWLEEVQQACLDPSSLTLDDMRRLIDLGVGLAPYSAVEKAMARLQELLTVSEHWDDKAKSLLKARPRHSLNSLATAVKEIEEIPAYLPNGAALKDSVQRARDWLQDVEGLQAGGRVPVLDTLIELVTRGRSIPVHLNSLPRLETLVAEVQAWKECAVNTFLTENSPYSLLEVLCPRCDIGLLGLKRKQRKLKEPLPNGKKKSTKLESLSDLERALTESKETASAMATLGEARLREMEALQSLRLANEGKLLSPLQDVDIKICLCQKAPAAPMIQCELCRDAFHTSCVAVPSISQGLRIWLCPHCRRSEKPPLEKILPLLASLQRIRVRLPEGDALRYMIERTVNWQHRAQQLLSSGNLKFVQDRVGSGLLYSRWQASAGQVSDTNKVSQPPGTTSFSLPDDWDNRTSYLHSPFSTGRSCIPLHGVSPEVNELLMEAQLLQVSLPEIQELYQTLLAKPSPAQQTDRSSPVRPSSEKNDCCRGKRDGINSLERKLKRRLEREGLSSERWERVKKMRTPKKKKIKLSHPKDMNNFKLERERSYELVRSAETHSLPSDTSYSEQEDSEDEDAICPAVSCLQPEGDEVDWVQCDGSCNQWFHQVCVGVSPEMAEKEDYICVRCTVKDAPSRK
# Test: Primary screen for KDM5B Histone Demethylases FDH-coupled qHTS; further: nearly all actives have a fitted effect of over 70% in size; on activity change, negative = inhibition: 0% is about no effect
# Settings: FDH-coupled NADH fluorescence (FDH is formaldehyde dehydrogenase); activity change, negative = inhibition: at 57.7 µM (top of the series) unless noted
# How it was run: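 KDM5BΔAP (200 nM final) in 50 mM HEPES pH 7.5, 0.01% Tween-20 was preincubated 10 min at RT with compound over a concentration range. Substrate mix (H3K4me3 12.5 µM, α-KG 25 µM, Fe²⁺, ascorbate, NAD⁺, FDH) was added, and NADH fluorescence change over 30 min gave dose-response curves.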
# Potency means the concentration at half of the fitted maximal effect; tags describe the fitted curve by direction and shape.
Structure (SMILES),"activity change, negative = inhibition",Potency
CN(CC(=O)NC(=O)NCc1ccccc1)Cc1ccc(Cl)cc1Cl,inactive: -13.1%,–
CCCCCCN1CCC2(CC1)Cc1ccccc1CNC2=O,inactive: 24.5% [at 149 µM],–
Cc1noc(C)c1-c1cc(-c2ccccc2O)cn2cncc12,inactive: -1470% [at 86.2 µM],–
Cc1nc(-c2cn(C3CCCN(C(=O)c4cc5ccccc5[nH]4)C3)nn2)no1 (stereo not given),–,"inconclusive: 20 µM [inhibitor, single point]"
O=C1Cc2c(-c3cccc4ccccc34)n[nH]c2CN1Cc1ccccn1,–,"inconclusive: 50.1 µM [inhibitor, partial curve, poor fit]"
COc1ccc(NC(=O)c2c(C)oc3ccn(Cc4ccc(F)cc4)c(=O)c23)c(OC)c1,–,"inconclusive: 15.8 µM [inhibitor, partial curve]"
Cc1ccc(CNc2ncccc2C#N)cc1,inactive: 357%,–
Cc1[nH]c2ccccc2c1C=O,inactive: 3.68%,–
Cn1nc(CC(=O)OCC(=O)NC2CC2)c2ccccc2c1=O,inactive: -8.63%,–
CCc1nc2ccc(C(=O)NCCc3ccc(OC)cc3OC)cc2nc1CC,–,"inconclusive: 17.8 µM [inhibitor, partial curve, poor fit]"
COc1ccc(C(=O)N2CCC3(CC2)CC(N(C(=O)c2ccccc2)C2CC2)CCO3)cn1 (stereo not given),inactive: -5.38%,–
O=C(NCCc1ccc(Cl)cc1)c1ccc(CS(=O)(=O)Cc2ccc(Cl)cc2)o1,–,"inconclusive: 17.8 µM [inhibitor, partial curve, poor fit]"
O=C(Cc1cccs1)N1CCOc2ccc(CN3CCc4ccccc4C3)cc2C1,–,"inconclusive: 15.8 µM [inhibitor, partial curve]"
Cc1ccc2nc(C3CCCN(Cc4ccc(-c5cncnc5)cc4)C3)[nH]c(=O)c2c1 (stereo not given),–,"inconclusive: 56.2 µM [inhibitor, partial curve, poor fit] and inconclusive: 25.1 µM [inhibitor, single point]"
O=C(Nc1ccc(Cl)cc1)c1nc2c(o1)CCN(Cc1ccc(F)cc1F)CC2,–,active: 28.2 µM
CCC(C(=O)NCc1ccc2c(c1)CCN2C(=O)c1ccc(F)cc1)c1ccccc1 (stereo not given),inactive: -8.61%,–
COc1ccc(-c2cn3c(n2)N(C(=O)c2cccs2)CCC3)cc1,–,"inconclusive: 17.8 µM [inhibitor, partial curve]"
O=C(Nc1ccc2oc(-c3ccncc3)nc2c1)c1cc(Cl)ccc1Cl,–,"inconclusive: 10 µM [inhibitor, partial curve, poor fit]"
CC(NC(=O)c1cc2ccccc2oc1=O)C(=O)NCc1ccccc1 (stereo not given),–,"inconclusive: 15.8 µM [inhibitor, single point]"
CCOCCNc1ncnc2c1CN(C1CCC1)C(=O)CN2C,–,"inconclusive: 28.2 µM [inhibitor, single point]"
COc1ccc(-c2nc(-c3ccccc3)nc3c2CN(C(=O)N(C)C)CC3)cc1,–,"inconclusive: 31.6 µM [inhibitor, partial curve, poor fit]"
CCN(CC(=O)NC1CCS(=O)(=O)C1)C(=O)c1cc(-c2ccc(C)cc2)nc2ccccc12 (stereo not given),–,"inconclusive: 3.16 µM [inhibitor, full curve, poor fit]"
Cc1cc(C(=O)OCC(=O)c2ccc(OCc3ccccc3)cc2)c2ccccc2n1,inactive: -5.67%,–
CCc1noc(-c2cccn3c(CNC(=O)Cc4ccc(F)cc4)nnc23)n1,–,active: 28.2 µM

Structure (SMILES),"activity change, negative = inhibition",Potency
Cc1nnc(NC(=O)c2ccc3ccn(C)c3c2)s1,–,"inconclusive: 22.4 µM [inhibitor, partial curve, poor fit]"
CCOC(=O)CSc1nc2sc3c(c2c(=O)n1-c1ccccc1)CCN(C(C)C)C3,–,"inconclusive: 22.4 µM [inhibitor, partial curve, poor fit]"
Cc1nn(-c2ccccc2)nc1C(=O)N[C@H](C)c1onc(-c2ccc(F)cc2)c1C(=O)O,–,active: 31.6 µM
COc1ccc(C(=O)OCC(=O)c2ccc3c(c2)OCCO3)cc1,inactive: 13.5%,–
O=C(COc1ccccc1)NC1CCCc2c1[nH]c1ccccc21 (stereo not given),–,"inconclusive: 14.1 µM [inhibitor, partial curve]"
CC(=O)c1ccccc1NCC(=O)Nc1ccccc1,inactive: 16%,–
S=C1NC(=S)/C(=C/C=C/c2ccco2)S1,–,"inconclusive: 39.8 µM [inhibitor, partial curve, poor fit]"
Cc1n[nH]c(C)c1CCNC(=O)c1ccccc1OC1CCN(Cc2ccccn2)CC1,–,"inconclusive: 35.5 µM [inhibitor, single point]"
COC(=O)c1ccccc1NC(=O)Cn1c(=O)n(CCCCC(=O)NCc2ccc3c(c2)OCO3)c(=O)c2ccccc21,–,"inconclusive: 1.78 µM [inhibitor, full curve, poor fit]"
O=C(Cc1c[nH]c2ncc(-c3ccccc3C(F)(F)F)cc12)NCc1cccnc1,–,"inconclusive: 39.8 µM [inhibitor, single point]"
CC(CCCCCCCCCCCCCO)(C(=O)O)C(=O)O,inactive: -18.1%,–
CCCCn1c(=O)c(CCc2ccccc2)nc2c1c(=O)[nH]c(=O)n2Cc1ccccc1,–,"inconclusive: 25.1 µM [inhibitor, partial curve, poor fit]"
CN(C)c1ccc(-c2nc(-c3nnn4c3COC(c3ccccc3Cl)C4)no2)cc1 (stereo not given),–,active: 25.1 µM
CCCNC(=O)CSc1nnc(-c2cccnc2)o1,inactive: -2.74%,–
CCOc1ccc(C2CCCN2S(=O)(=O)Cc2ccc(F)cc2)cc1 (stereo not given),inactive: -0.393%,–
Cc1ccc(CN2CCc3nc(C(C)C)nc(-c4ccc(O)cc4)c3C2)cc1,–,"inconclusive: 25.1 µM [inhibitor, partial curve, poor fit]"
Cc1ccc(NC(=O)Cn2ncn3c(cc4ccccc43)c2=O)cc1C,–,"inconclusive: 8.91 µM [inhibitor, partial curve, poor fit]"
COc1ccc(-c2onc(C)c2C(=O)NCCSCc2ccco2)cc1,–,active: 22.4 µM
Cn1cc(-c2cnc(Nc3ccc(N4CCOCC4)cc3)c3c2CCO3)cn1,–,"inconclusive: 28.2 µM [inhibitor, single point]"
Cc1noc(C)c1S(=O)(=O)N1CCCC2(C1)Nc1cccnc1NC2=NC1CCCC1 (stereo not given),–,active: 22.4 µM
CCN1c2cc(C(=O)Nc3ccc(OC)c(F)c3)ccc2C(=O)N2CCCCCC21 (stereo not given),–,"inconclusive: 25.1 µM [inhibitor, partial curve, poor fit]"
CCc1noc(-c2cccn3c(CNC(=O)c4ccccc4OC)nnc23)n1,–,"inconclusive: 25.1 µM [inhibitor, partial curve, poor fit]"
COCCCNc1ncnc2sc3c(c12)CCN(Cc1cccnc1)C3,inactive: -1890%,–
O=C(O)/C(=C\c1ccc(Br)cc1)Sc1nc2ccccc2s1,inactive: -14.6%,–

Structure (SMILES),"activity change, negative = inhibition",Potency
O=C(c1ccccn1)N1CCC(N2CCCC2=O)CC1,inactive: -7.32% [at 86.2 µM],–
COCc1ccc2c(c1)c(OC(C)(C)C(=O)N1CC(O)C1)nn2Cc1ccccc1,–,"inconclusive: 35.5 µM [inhibitor, single point]"
CN(C)C(=O)c1cccnc1OC1CCN(C(=O)C2CCOCC2)CC1,inactive: -11%,–
CN1CC(=O)N(C2CCCNC2)Cc2c(NC3CCN(Cc4ccccc4)CC3)ncnc21 (stereo not given),–,"inconclusive: 44.7 µM [inhibitor, partial curve, poor fit]"
COCc1cc(=O)n(CC(=O)Nc2cccc(OC)c2)c(N2CCOCC2)n1,–,"inconclusive: 12.6 µM [inhibitor, partial curve]"
CCS(=O)(=O)c1ccc2oc([C@H]3CCN(C4CCCCC4)C3)nc2c1,–,"inconclusive: 39.8 µM [inhibitor, single point]"
CCc1cccc(NC(=O)COc2cc(=O)n(CC)c3ccccc23)c1,–,"inconclusive: 17.8 µM [inhibitor, partial curve, poor fit]"
CCN1c2cc(C(=O)Nc3ccc(F)c(F)c3)ccc2C(=O)N2CCCCC21 (stereo not given),–,"inconclusive: 28.2 µM [inhibitor, partial curve, poor fit]"
Cn1ccc2cc(S(=O)(=O)N3CCN(C(=O)Nc4ccccc4F)CC3)ccc21,inactive: -9.73%,–
Cc1ccc(-n2cc(CN3CCCCC3C(N)=O)c(-c3cccc(C)c3)n2)cc1 (stereo not given),inactive: -20.1%,–
Cc1cc(N2CCN(Cc3ccc(F)c(F)c3)C(CCO)C2)nc(N)n1 (stereo not given),inactive: -24.2%,–
CCOC(=O)[C@]12CCCCC/C=C\1N(Cc1ccc(OC)cc1)C(=O)[C@H]2CC(=O)N1CCCCC1,inactive: 23.2%,–
CC(C)c1ccc(/C=C(\C#N)c2nc(-c3ccc(O)cc3)cs2)cc1,–,"inconclusive: 2.24 µM [inhibitor, full curve, poor fit]"
CCc1nnc(NC(=O)CSc2nc3c([nH]c4ccccc43)c(=O)n2-c2ccc(OC)cc2)s1,–,"inconclusive: 28.2 µM [inhibitor, single point]"
COC(=O)C1=C(C)N=C2SC=C(CC(=O)NCc3cccc(F)c3)N2C1c1ccccc1 (stereo not given),–,"inconclusive: 35.5 µM [inhibitor, partial curve, poor fit]"
CSc1ccccc1C(=O)Nc1cccc(F)c1,inactive: -3.93%,–
CC1Oc2ccc(NC(=O)c3ccc(F)cc3)cc2CN(Cc2ccc3c(c2)OCO3)C1=O (stereo not given),–,"inconclusive: 31.6 µM [inhibitor, partial curve, poor fit]"
O=C1NC2(CCCC2)C(=O)N1Cc1coc(-c2ccc(Cl)cc2)n1,inactive: 13%,–
CCCNc1nc(-c2[nH]c(C)c(C(C)=O)c2C)cs1,–,"inconclusive: 39.8 µM [inhibitor, single point]"
Cc1cc(-c2cc(-c3ccccn3)nc3c(C)noc23)ccn1,inactive: 9.48% [at 86.2 µM],–
CN(C)S(=O)(=O)N1CCN(C(=O)C2CC(=O)N(c3n[nH]c4ccccc34)C2)CC1 (stereo not given),inactive: -18.2%,–
CCOc1cccc2sc(N(CCCN(C)C)C(=O)c3ccc(C(=O)c4ccccc4)cc3)nc12,inconclusive: -31.7% [inhibitor],–
